The list shows a part of the results. Values were computed here from the reads of four pooled replicates and scatter widely.
Target: T1, Pho4 (S. cerevisiae) (UniProt P07270)
T1 sequence: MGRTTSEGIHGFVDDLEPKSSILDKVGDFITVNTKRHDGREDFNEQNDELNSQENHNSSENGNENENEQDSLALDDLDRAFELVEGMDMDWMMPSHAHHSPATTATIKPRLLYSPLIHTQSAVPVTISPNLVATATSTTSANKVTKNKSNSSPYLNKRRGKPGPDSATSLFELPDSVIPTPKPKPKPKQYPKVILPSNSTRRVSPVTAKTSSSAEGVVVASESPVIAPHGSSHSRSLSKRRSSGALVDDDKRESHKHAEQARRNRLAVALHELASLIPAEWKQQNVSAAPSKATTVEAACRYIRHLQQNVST
Test: relative binding free energy (BET-seq); higher = weaker binding
Conditions: reference: library average

Sequence	relative binding free energy [kcal/mol]
TTCGGCACGTGGGAGA	-0.14
TAGTTCACGTGTTGCG	0.18
CTGCGCACGTGTAGGT	-0.17
TGCGTCACGTGTGTAT	0.1
TGAGGCACGTGGTGGG	-0.19
CGATTCACGTGGATGG	0.05
ATATGCACGTGTTGAC	0.03
CTCGGCACGTGGTAGT	-0.2
TGTGTCACGTGGATAC	0.04
TTAAGCACGTGGCGGC	-0.05
TGGGGCACGTGGGCGC	-0.17
TGTGCCACGTGATCGG	-0.04
CGGCGCACGTGGCGGT	-0.14
GGCGTCACGTGTGGGT	0.1
ATGCTCACGTGGGATG	0.26
CCTTTCACGTGTGTTT	0.09
TGTAGCACGTGAACGG	0.24
GTTGGCACGTGTCGCT	0.07
AGCATCACGTGTAAGG	0.18
AAGTGCACGTGGCTGA	-0.1
GAAGGCACGTGATAGG	-0.08
TGGGACACGTGCCGTG	-0.09
ATAATCACGTGGGTTC	0.06

Sequence	relative binding free energy [kcal/mol]
TACGTCACGTGGTGGA	0.01
GTCGGCACGTGCTTTT	0.14
TCTGGCACGTGAAGTT	0.28
TTACTCACGTGAGGGG	0.32
GTCGACACGTGTCAGG	0.25
ATATGCACGTGAGCGG	0.05
TGTTGCACGTGGGGCC	-0.18
GTTGTCACGTGGTAAA	0.18
AAGTTCACGTGCGGGG	0.37
AGGGTCACGTGTTACG	0.16
TATGGCACGTGTGACT	0.06
TTATGCACGTGGTATT	-0.03
TAGTGCACGTGTAGTC	0.08
TGTAGCACGTGTGGTT	0.07
TCGGTCACGTGGACGT	0.1
TTGATCACGTGTTCTG	0.07
GTGGGCACGTGGTCGA	-0.32
GGCGACACGTGGGTAG	-0.12
GGTGTCACGTGTCTTA	0.08
TGACTCACGTGGAGTA	0.34
ATGGGCACGTGTGGTT	0.01
AGGAGCACGTGTGCGG	-0.08
GTTATCACGTGTTAAA	0.12

Sequence	relative binding free energy [kcal/mol]
GGTTGCACGTGCTCGG	-0.14
AGTTGCACGTGACAGG	0.18
GGTGTCACGTGTTGTG	0.18
GTAGACACGTGTGTGC	0.09
GGAATCACGTGATGTA	0.43
TAGGACACGTGGGATG	-0.06
TAGTTCACGTGAGGGG	0.48
TCGGGCACGTGTAGGC	0.03
CGTATCACGTGAGTGG	0.35
TTTTACACGTGCATTT	0.05
GTCGGCACGTGTAAGG	0.03
ATCGTCACGTGGGTCG	-0.04
ACTTGCACGTGGTGGA	-0.12
AGTTACACGTGGAGTG	0.08
GTGGCCACGTGTGTTG	-0.03
ATATGCACGTGGAGTG	-0.03
AAGGTCACGTGGATTG	0.1
CATGTCACGTGGGCGG	-0.03
GAATGCACGTGAGTGG	0.23
TCGTTCACGTGGTGAA	0.21
TACTTCACGTGGTATG	0.1
GAGGCCACGTGTGGTC	0.11
TTTGCCACGTGGGGAC	-0.2

Sequence	relative binding free energy [kcal/mol]
TGGTGCACGTGTGTAC	-0.03
GAGTGCACGTGAGGCA	0.22
GGTCGCACGTGATGTG	0.18
AGTTGCACGTGGCAGT	-0.14
AATTGCACGTGGCGTG	-0.03
GTTTGCACGTGAGTCG	0.32
TATTACACGTGGGTGT	-0.04
CATGTCACGTGTGATA	0.18
AGTGACACGTGATGTG	0.12
TTATGCACGTGGCTAG	-0.06
TTGGGCACGTGCTTGC	-0.05
TTTGACACGTGAATGG	0.2
TGGTTCACGTGACGTA	0.33
GGTAGCACGTGGGAGG	-0.16
AACCTCACGTGTGGGT	0.33
GTTGGCACGTGTAGGC	-0.04
AGGTACACGTGAGGCG	0.17
TATGGCACGTGACGTT	0.01
TGCATCACGTGGCGGT	-0.01
GGGGCCACGTGGGCTA	-0.13
GGTCTCACGTGTGTTA	0.24
AGGGGCACGTGGAATT	0.06
GCGGTCACGTGGTCTA	0.19

Sequence	relative binding free energy [kcal/mol]
GCGGACACGTGGGGGA	-0.09
CGTTACACGTGAATTT	0.36
TTCGTCACGTGTGGTA	0.13
ATTGGCACGTGAGATC	0.36
GGAGCCACGTGAGGGG	0.18
GTATACACGTGGTTCG	0.03
TGAGTCACGTGTATAG	0.23
CATGGCACGTGTGGCA	0.2
GTTAACACGTGGAATT	0.23
GTGTTCACGTGGACAT	0.12
TTTGACACGTGGCGTA	-0.19
GTGGGCACGTGGGGCG	-0.19
ATAGCCACGTGTTAGT	-0.11
AGGGTCACGTGGTGGT	0.09
TTTAGCACGTGCGGAG	-0.02
AAGGACACGTGTATTT	0.12
TTCTGCACGTGTTAAT	-0.1
GAATTCACGTGTTCGG	0.5
TCTGGCACGTGTGCAT	-0.11
CTGTTCACGTGGTAGG	0.2
TGGTGCACGTGGTCGG	-0.16
TTTAACACGTGGGTGT	-0.18
AATGACACGTGGTGTA	-0.2
